Assay results: PubChem BioAssay AID1745853 (National Center for Advancing Translational Sciences (NCATS), 2022)
“And” between values parts separate entries of the source, which are not always exact repeats. Equal entries are not always repeated. The list shows a part of the results. Shown are side measurements of this screen, not its main read-out; they come without a call.

Columns and labels:
Assay in all cases: Primary Screen for Target Class Profiling of Small Molecule Inhibitors of Methyltransferases
[1] = molecular target: Glycine N-methyltransferase (Homo sapiens) (UniProt Q14749); details: purified enzyme, MTase-Glo SAH luminescence; measured here: GNMT inhibition; at 40 µM; stronger effect = lower value
Method in brief: (§1)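 Each enzyme was assayed with SAM and its substrate. SAH formation detected by MTase-Glo luminescence; single-point 40 uM screen[…].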

[2] = molecular target: Guanidinoacetate N-methyltransferase (Homo sapiens) (UniProt Q14353); details: purified enzyme, MTase-Glo SAH luminescence; measured here: GAMT inhibition; at 40 µM; stronger effect = lower value
Method in brief: as §1

[3] = molecular target: Histamine N-methyltransferase (Homo sapiens) (UniProt P50135); details: purified enzyme, MTase-Glo SAH luminescence; measured here: HNMT inhibition; at 40 µM; stronger effect = lower value
Method in brief: as §1

[4] = molecular target: Nicotinamide N-methyltransferase (Homo sapiens) (UniProt P40261); details: purified enzyme, MTase-Glo SAH luminescence; measured here: NNMT inhibition; at 40 µM; stronger effect = lower value
Method in brief: as §1

[5] = molecular target: Phenylethanolamine N-methyltransferase (Homo sapiens) (UniProt P11086); details: purified enzyme, MTase-Glo SAH luminescence; measured here: PNMT inhibition; at 40 µM; stronger effect = lower value
Method in brief: as §1
% is set by controls: 0 for no effect and ±100 for the full control effect.

Compound	activity change, negative = inhibition [1]	activity change, negative = inhibition [2]	activity change, negative = inhibition [3]	activity change, negative = inhibition [4]	activity change, negative = inhibition [5] [%]
CN(C)CCCN1c2ccccc2Sc2ccccc21	5.83%	6.32%	5.89%	-13.8%	-6.48
Cc1ccc(NC(=O)CSc2nnc3n(CC(C)C)c(=O)c4ccc(C(=O)NC(C)C)cc4n23)cc1	-4.28%	-13.7%	3.13%	-5.68%	-2.83
CCCCS(=N)(=O)CC[C@H](N)C(=O)O (stereo partly drawn)	-7.23%	-0.62%	-1.69%	6.94%	-3.81
CCCc1ccc(CN2CCC(c3nnc(Cn4ccnc4)n3C3CC3)CC2)o1	-3.2%	-3.96%	-6.31%	-3.5%	-1.33
NC(=O)c1ccc(OCC2NC(=O)C3CCCN3C2=O)cc1 (stereo not drawn)	-3.53%	-2.89%	0.808%	-11.4%	1.81
COc1ccc(CNC(=O)CCC2CCCN(C(=O)CCN3CCCCO3)C2)c(OC)c1 (stereo not drawn)	-5.53%	-12.4%	-4.81%	-25.1%	-14.1
CC1CCC(NC(=O)C2(C)Cn3c(cc4occc43)C(=O)N2C2CCCCC2)CC1 (stereo not drawn)	-0.955%	2.69%	4.08%	-3.44%	2.44
CCOc1cccc2c1OC(c1ccc(F)cc1)C([N+](=O)[O-])=C2 (stereo not drawn)	–	1.74%	–	-8.09%	4.05
C=C(CC/C=C(\C)C(=O)O)C1(O)CC=C(C)CC1 (stereo not drawn)	0%	0.833%	0.024%	-8.12%	3.92
COc1ccc(NS(=O)(=O)c2ccc3[nH]c(=O)[nH]c3c2)c(OC)c1	-0.373%	4.08%	-2.98%	-7.22%	-13.9
Cc1ccc(-c2nnc3n(CCc4ccccc4)c(=O)c4ccccc4n23)cc1	-7.81%	5.72%	-0.901%	-9.46%	-7.94
CCC(C)NC(=O)c1ccc2c(=O)n(C(C)C)c3nn(CC(=O)Nc4ccc(C)cc4)c(=O)n3c2c1 (stereo not drawn)	5.45%	5.33%	4.42%	1.68%	6.27
Fc1cccc(CN(C2=NCCN2)c2c(Cl)cccc2Cl)c1	5.53%	9.52%	-46.5%	-25%	5.14
CCOC(=O)C1CCN(C(=O)CCn2ccc3cc(S(=O)(=O)N4CCCCC4)ccc32)CC1	5.49%	0.766%	1.58%	4.99%	1.33
COc1ccc(-c2n[nH]n3c2nc(=O)c2ccc(C(=O)NCc4ccccc4OC)cc23)cc1	-8.33%	4.21%	0.615%	1.44%	-1.4
Cn1c(=O)n(C)c2cc(S(=O)(=O)Nc3cccc(F)c3)ccc21	10.7%	0%	10.4%	2.24%	2.96
O=C1NC2CCc3nc4ccccc4c(=O)n3C2=Nc2ccccc21 (stereo not drawn)	3.13%	4.75%	13.5%	-7.24%	5.22
CC(=O)OC[C@]1(O)[C@H]2[C@H](OC(=O)CC(C)C)OC=C(CO[C@@H]3O[C@H](CO)[C@@H](O)[C@H](O)[C@H]3O)[C@H]2C[C@@H]1O	-1.83%	1.46%	8.37%	-11.6%	6.95
O=C(COc1ccc2c(-c3ccccc3)cc(=O)oc2c1)c1ccc(Cl)cc1	-0.13%	0.271%	4.26%	2.79%	-0.096
CCN(Cc1noc(C2CCC2)n1)C(=O)CC1C(=O)NCCN1CC(C)C (stereo not drawn)	-3.39%	0.041%	-1.2%	-6.95%	-2.35
CC(C)(C(=O)O)c1ccc(C(O)CCCN2CCC(C(O)(c3ccccc3)c3ccccc3)CC2)cc1 (stereo not drawn)	1.87% and 11.3%	6.16% and 15.9%	9.46% and 12.5%	-14.9% and -2.41%	3.3

Compound	activity change, negative = inhibition [1]	activity change, negative = inhibition [2]	activity change, negative = inhibition [3]	activity change, negative = inhibition [4]	activity change, negative = inhibition [5] [%]
CN1C(=O)c2cc(C(=O)NCCCN3CCCC3=O)nn2CC1(C)C(=O)NC1CCCCC1 (stereo not drawn)	8.31%	0.956%	8.02%	5.84%	4.19
COC1=Cc2c(nc3n(c2=O)C(C)C(=O)NC3(O)C(C)C)OC=C1 (stereo not drawn)	-5.18%	-7.44%	0.237%	-14.4%	-2.72
COc1ccc(-c2cc3n(n2)CC(C)(C(=O)NCc2ccccc2)N(c2cccc(SC)c2)C3=O)cc1 (stereo not drawn)	-1.35%	4.6%	0.468%	-2.54%	-2.81
CCCCNc1nc2c(-c3ccccc3)nnn2c2ccccc12	-0.666%	3.97%	-5.39%	-5.45%	-8.06
Oc1ccc2nc(CN3CCC(Cc4ccccc4F)CC3)[nH]c2c1	-1.44%	-4.88%	0.719%	-25.4%	-12.4
Cc1cccc(CN2CCN3C(=O)N(Cc4ccc(F)cc4)C[C@H]3C2)n1	-7.81%	-13.9%	-4.42%	-12.7%	-7.73
Cc1noc(=O)c2ccc(NC(=O)C(O)(CC(C)(C)c3cccc4c3OCC4)C(F)(F)F)cc12 (stereo not drawn)	0.207%	1.71%	7.08%	-15.6%	-1.66
Cc1ccc(N2C(=O)c3cc(C(C)(C)C)nn3CC2(C)C(=O)NCc2ccccc2)c(C)c1 (stereo not drawn)	3.92%	6.5%	-1.67%	4.21%	-1.48
CCCN1C(=O)c2c(C(=O)Nc3cccc(Cl)c3)ncn2CC1(C)C(=O)NCc1ccc(OC)cc1 (stereo not drawn)	-10.3%	0%	-1.35%	-1.39%	-1.11
COc1cnc(-c2ccc(Cn3c(CC(C)(C)C(=O)O)c(SC(C)(C)C)c4cc(OC[C@@H]5Cc6ccccc6N5C(C)=O)ccc43)cc2)nc1	-7.77%	-0.946%	10%	-51.1%	-3.17
Cc1ccc(CNC(=O)CCc2nnc3n(CC(C)C)c(=O)c4ccccc4n23)cc1	0.44%	0%	9.84%	9.62%	1.46
COCCCN1C(=O)c2c(C(=O)OC)ncn2CC1(C)C(=O)NC1CCCCCC1 (stereo not drawn)	4.83%	-2.09%	7.74%	13.3%	4.43
O=C(O)c1ccc(CN2CC(COc3ccccc3)C3(C2)CN(c2ccccc2)C3)cc1 (stereo not drawn)	-14.1%	-8.51%	-5.07%	-20.4%	8.7
CC(C)Cn1c(=O)c2ccccc2n2c(=O)n(CC(=O)NCc3ccc(Cl)cc3)nc12	-8.45%	0%	-3.24%	-4.53%	-8.06
Cc1ccc(-c2noc(-c3cccc(S(=O)(=O)N4CCN(c5cccc(C)c5C)CC4)c3)n2)cc1	-2.18%	-1.65%	-5.89%	-11.3%	-8.71
O=C1CN(Cc2ccccc2Cl)S(=O)(=O)c2ccccc2N1Cc1ccccc1F	16.2%	0.841%	11.7%	6.03%	7.85
O=C1Cc2c(-c3ccccc3OCc3ccccc3)n[nH]c2CN1Cc1ccccn1	-16.1%	-8.26%	-11.6%	-27.8%	-7.35
COCCN1CCCC2(CCN(C(=O)c3ccc(Cl)s3)C2)C1=O (stereo not drawn)	-0.671%	1.77%	-0.895%	-3.12%	-1.59
Cc1ccc([S+](=O)([O-])N2CCCC(N3C(=O)c4c(c(C)nn4-c4ccccc4)C3C)C2)cc1 (stereo not drawn)	-2.44%	-2.61%	1.28%	-8.62%	-13.6
COc1ccccc1CCNC(=O)c1cc2n(n1)CC(C)(C(=O)NC1CCCCC1)N(C)C2=O (stereo not drawn)	2.73%	2.62%	5.04%	3.88%	2.08
CCCN1C(=O)c2cc(C(=O)NCCCN3CCCCC3)nn2CC1(C)C(=O)NC1CCCC1 (stereo not drawn)	-1.11%	-0.578%	-3.71%	-6.35%	-2.19

Compound	activity change, negative = inhibition [1]	activity change, negative = inhibition [2]	activity change, negative = inhibition [3]	activity change, negative = inhibition [4]	activity change, negative = inhibition [5] [%]
C=C(C)C1=C[C@@]2(C)C(=CC1=O)CC[C@@H](O)[C@@H]2C	4.08%	3.34%	8.27%	-9.74%	7.32
COc1ccc(NC2CCCN(C(=O)c3cn(CCCN)nn3)C2)cc1 (stereo not drawn)	-16.6%	-8.59%	-4.89%	-13%	-23.1
Cc1cc2c(cc1S(=O)(=O)Nc1ccc(Br)cc1)n(C)c(=O)n2C	-7.34%	0.259%	-12.1%	-18.6%	-13.2
Cc1ccc(CNc2nc3c(-c4cccc(F)c4)nnn3c3ccccc23)cc1	0.736%	5.7%	-1.68%	-3.54%	-5.94
CCN(CC)CCCCNc1ncc2cc(-c3c(Cl)cccc3Cl)c(NC(=O)NC(C)(C)C)nc2n1	3.97%	12.9%	-31.6%	-12.8%	-1.99
COc1cc(NS(=O)(=O)c2cc3c(cc2C)n(C)c(=O)n3C)cc(OC)c1	13.3%	0%	9.26%	4.45%	4.1
CC1(C)CC2C(C1)C(C)(O)C13CC1(COC3=O)C2O (stereo not drawn)	0.313%	-4.16%	4.27%	-14.5%	-9.47
COc1cccc(-c2cc(NCc3ccc4c(c3)OCO4)nc(N)n2)c1	-13.6%	-12.9%	-62.5%	-35.5%	-8.15
COc1ccc(-c2cnc3[nH]cc(CC(=O)N4CCNC(=O)C4)c3c2)cc1	-9.37%	-8.75%	-7.38%	-9.52%	-20.9
CCOc1ccc(C(=O)Nc2ccc3c(c2)C(=O)N(C)C2=NCCN23)cc1	-1.36%	0%	2.15%	5.43%	2.13
COc1ccccc1CN1C(=O)c2cc3occc3n2CC1(C)C(=O)NC1CCCCCC1 (stereo not drawn)	-0.008%	0%	3.6%	3.55%	-2.5
COc1ccc2cc3n(c2c1)CC(C)(C(=O)NCC1CCCO1)N(Cc1ccccc1C)C3=O (stereo not drawn)	3.9%	0.271%	3.59%	6.71%	1.45
O=C(c1ccccc1Cl)N1CCc2c(nc3cc(-c4ccccc4)[nH]n3c2=O)C1	-27.7%	-38.5%	-34.6%	-18.4%	-18.2
CC1(C(=O)NCc2ccc(F)cc2)Cn2cnc(C(=O)NCc3ccccc3Cl)c2C(=O)N1C1CC1 (stereo not drawn)	-15.6%	-7.95%	-12.7%	-15.6%	-11.8
COc1cccc(-c2cc(C(=O)NCc3c(C)cc(C)[nH]c3=O)c3c(c2)N(C(C)C)CCO3)c1OC	-9.62%	-6.18%	-4.68%	-35.4%	17.8
COc1ccc(CN2C(=O)c3nc4ccccc4n3CC2(C)C(=O)NC2CCCCCC2)cc1 (stereo not drawn)	-12.9%	-2.2%	-5.71%	-16.3%	-7.33
CCN1C(=O)c2cc(C(=O)NCc3ccc(N(C)C)cc3)nn2CC1(C)C(=O)NC1CCCC1 (stereo not drawn)	8.88%	2.72%	8.54%	7.02%	7.3
CCOc1ccc(CN2C(=O)c3cc4occc4n3CC2(C)C(=O)NC2CCC(C)CC2)cc1 (stereo not drawn)	-2.9%	4.85%	1.18%	-1.37%	-5.84
C[C@@H]1C(=O)OC[C@H]2C(C(=O)O)=C[C@@H]3CC(C)(C)C[C@]312	-4.18%	0.245%	11.2%	-15.1%	-10.4
